# The supplement of paper PMC4604168 (melanoma cell lines)
# The other results are listed elsewhere or left out. Single values are uncertain, as repeats are few or missing.
# System: LOXIMVI
# Experiment: cell count relative to DMSO control; melanoma cells; higher = more viable cells
# Conditions: library dose: standard library concentration; 72 h
# 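Further: cells treated in 1,536-well plates, then fixed and DAPI-stained, with nuclei counted from automated high-throughput microscope images.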
row,Structure (SMILES),cell count
1,"CCCCCCCCc1ccc(CCC(N)(CO)CO)cc1 [fingolimod] + Cc1cc([N+](=O)[O-])ccc1NS(=O)(=O)c1cc(Cl)ccc1Cl [FH535] (first compound 10 µM, partner dose 5 µM)",48.7%
2,"CN(NC(=O)CC(=O)NN(C)C(=S)c1ccccc1)C(=S)c1ccccc1 + COc1cc2c(Oc3ccc4[nH]c(C)cc4c3F)ncnc2cc1OCCCN1CCCC1 [cediranib] (first compound 0.03 µM, partner dose 2 µM)",62.2%
3,"CCc1ccc(CCOc2ccc(CC3SC(=O)NC3=O)cc2)nc1 (stereo not given) [pioglitazone] + O=C1NC(=O)/C(=C/c2ccc(-c3ccc(F)cc3O)o2)S1 [AS252424] (first compound 10 µM, partner dose 5 µM)",109%
4,"Cc1ccc(NC(=O)c2cccc(N(C)C)c2)cc1NC(=O)c1ccc(O)cc1 + CCCCCCCCCCCC1=C(O)C(=O)C=C(O)C1=O [Embelin] (first compound 10 µM, partner dose 6 µM)",110%
5,"Cc1ccc(NC(=O)c2cccc(N(C)C)c2)cc1NC(=O)c1ccc(O)cc1 + COc1ccc2c(c1)CCC1C2CCC2(C)C(NCCCCCCN3C(=O)C=CC3=O)CCC12 [U73122] (first compound 10 µM, partner dose 2 µM)",75.4%
6,"CC(C)(C)c1cnc(CSc2cnc(NC(=O)C3CCNCC3)s2)o1 + CN(NC(=O)CC(=O)NN(C)C(=S)c1ccccc1)C(=S)c1ccccc1 [STA4783] (first compound 0.05 µM, partner dose 0.03 µM)",61.6%
7,"CN(NC(=O)CC(=O)NN(C)C(=S)c1ccccc1)C(=S)c1ccccc1 + COc1cc(N2CCC(N3CCN(C)CC3)CC2)ccc1Nc1ncc(Cl)c(Nc2ccccc2S(=O)(=O)C(C)C)n1 [NVP-TAE684] (first compound 0.03 µM, partner dose 0.4 µM)",86.5%
8,"CN(NC(=O)CC(=O)NN(C)C(=S)c1ccccc1)C(=S)c1ccccc1 + CCCCCCCCCCCC1=C(O)C(=O)C=C(O)C1=O [Embelin] (first compound 0.03 µM, partner dose 6 µM)",89.5%
9,"CC(C)(C)c1cnc(CSc2cnc(NC(=O)C3CCNCC3)s2)o1 + O=C(Nc1ccccc1)c1cc([N+](=O)[O-])ccc1Cl [GW9662] (first compound 0.05 µM, partner dose 10 µM)",65.2%
10,"CCCCCCCCc1ccc(CCC(N)(CO)CO)cc1 [fingolimod] + CCCS(=O)(=O)Nc1ccc(F)c(C(=O)c2c[nH]c3ncc(Cl)cc23)c1F [PLX4720] (first compound 10 µM, partner dose 0.4 µM)",14.6%
11,"CCCCCCCCc1ccc(CCC(N)(CO)CO)cc1 [fingolimod] + O=C(O)C(=O)Nc1sc2c(c1C(=O)O)CCNC2 [TCS401] (first compound 10 µM, partner dose 8.33333 µM)",46%
12,"CCc1ccc(CCOc2ccc(CC3SC(=O)NC3=O)cc2)nc1 (stereo not given) [pioglitazone] + COC(=O)c1sccc1S(=O)(=O)Nc1ccc(Nc2ccccc2)cc1OC [GSK0660] (first compound 10 µM, partner dose 5 µM)",112%
13,"COc1cc2c(Oc3ccc4[nH]c(C)cc4c3F)ncnc2cc1OCCCN1CCCC1 [cediranib] + COc1cc(N2CCC(N3CCN(C)CC3)CC2)ccc1Nc1ncc(Cl)c(Nc2ccccc2S(=O)(=O)C(C)C)n1 [NVP-TAE684] (first compound 2 µM, partner dose 0.4 µM)",40%
14,"CC(C)(C)c1cnc(CSc2cnc(NC(=O)C3CCNCC3)s2)o1 + CCCCCCCCCCCC1=C(O)C(=O)C=C(O)C1=O [Embelin] (first compound 0.05 µM, partner dose 6 µM)",86.2%
15,"CCCCCCCCc1ccc(CCC(N)(CO)CO)cc1 [fingolimod] + CN1CCN(c2ccc3nc(-c4c(N)c5c(F)cccc5[nH]c4=O)[nH]c3c2)CC1 [Dovitinib] (first compound 10 µM, partner dose 0.5 µM)",10.7%
16,"CCCCCCCCc1ccc(CCC(N)(CO)CO)cc1 [fingolimod] + COc1ccc2c(c1)CCC1C2CCC2(C)C(NCCCCCCN3C(=O)C=CC3=O)CCC12 [U73122] (first compound 10 µM, partner dose 2 µM)",36.8%
17,"Cc1ccc(NC(=O)c2cccc(N(C)C)c2)cc1NC(=O)c1ccc(O)cc1 + Cc1cc(N2CCOCC2)cc2[nH]c(-c3c(NC[C@@H](O)c4cccc(Cl)c4)cc[nH]c3=O)nc12 [BMS536924] (first compound 10 µM, partner dose 1 µM)",98.6%
18,"NC(=O)c1ccc(N(C(N)=O)c2c(F)cccc2F)nc1-c1ccc(F)cc1F + CCCCCCCCCCCC1=C(O)C(=O)C=C(O)C1=O [Embelin] (first compound 2 µM, partner dose 6 µM)",119%

row,Structure (SMILES),cell count
1,"NC(=O)c1ccc(N(C(N)=O)c2c(F)cccc2F)nc1-c1ccc(F)cc1F + Cn1nnc2c(C(N)=O)ncn2c1=O [temozolomide] (first compound 2 µM, partner dose 10 µM)",104%
2,"CN(NC(=O)CC(=O)NN(C)C(=S)c1ccccc1)C(=S)c1ccccc1 + COc1ccc2c(c1)CCC1C2CCC2(C)C(NCCCCCCN3C(=O)C=CC3=O)CCC12 [U73122] (first compound 0.03 µM, partner dose 2 µM)",82.9%
3,"NC(=O)c1ccc(N(C(N)=O)c2c(F)cccc2F)nc1-c1ccc(F)cc1F + CN(NC(=O)CC(=O)NN(C)C(=S)c1ccccc1)C(=S)c1ccccc1 [STA4783] (first compound 2 µM, partner dose 0.03 µM)",53.2%
4,"Cc1ccc(NC(=O)c2cccc(N(C)C)c2)cc1NC(=O)c1ccc(O)cc1 + O=C(Nc1cccc(Cl)c1)Nc1ncc(CCNc2ncnc3ccsc23)s1 [SNS314] (first compound 10 µM, partner dose 0.004 µM)",86.6%
5,"CCCCCCCCc1ccc(CCC(N)(CO)CO)cc1 [fingolimod] + COC(=O)c1sccc1S(=O)(=O)Nc1ccc(Nc2ccccc2)cc1OC [GSK0660] (first compound 10 µM, partner dose 5 µM)",61.8%
6,"CCCCCCCCc1ccc(CCC(N)(CO)CO)cc1 [fingolimod] + CCCCCCCCCCCC1=C(O)C(=O)C=C(O)C1=O [Embelin] (first compound 10 µM, partner dose 6 µM)",61.8%
7,"NC(=O)c1ccc(N(C(N)=O)c2c(F)cccc2F)nc1-c1ccc(F)cc1F + CN1CCN(c2ccc3nc(-c4c(N)c5c(F)cccc5[nH]c4=O)[nH]c3c2)CC1 [Dovitinib] (first compound 2 µM, partner dose 0.5 µM)",200%
8,"CC(C)(C)c1cnc(CSc2cnc(NC(=O)C3CCNCC3)s2)o1 + NCC(=O)Nc1ccc(-n2nc(C(F)(F)F)cc2-c2ccc3c(ccc4ccccc43)c2)cc1 [OSU03012] (first compound 0.05 µM, partner dose 5 µM)",57.5%
9,"CCCCCCCCc1ccc(CCC(N)(CO)CO)cc1 [fingolimod] + NC1(c2ccc(-c3nc4ccn5c(=O)[nH]nc5c4cc3-c3ccccc3)cc2)CCC1 [MK2206] (first compound 10 µM, partner dose 2 µM)",20.1%
10,"CC(C)(C)c1cnc(CSc2cnc(NC(=O)C3CCNCC3)s2)o1 + Oc1cc(-c2nc(-c3ccccc3)[nH]c2-c2ccncc2)ccc1Cl [L779450] (first compound 0.05 µM, partner dose 1 µM)",89%
11,"CCc1ccc(CCOc2ccc(CC3SC(=O)NC3=O)cc2)nc1 (stereo not given) [pioglitazone] + Oc1nc(-c2ccc(C(F)(F)F)cc2)nc2c1CSCC2 [XAV939] (first compound 10 µM, partner dose 10 µM)",99.9%
12,"COc1cc2c(Oc3ccc4[nH]c(C)cc4c3F)ncnc2cc1OCCCN1CCCC1 [cediranib] + Cn1cc(/C=C2\C(=O)Nc3cccnc32)c2ccccc21 [GW441756] (first compound 2 µM, partner dose 2 µM)",74.1%
13,"CCCCCCCCc1ccc(CCC(N)(CO)CO)cc1 [fingolimod] + Cn1cncc1[C@@](N)(c1ccc(Cl)cc1)c1ccc2c(c1)c(-c1cccc(Cl)c1)cc(=O)n2C [tipifarnib] (first compound 10 µM, partner dose 0.05 µM)",4.47%
14,"CCc1ccc(CCOc2ccc(CC3SC(=O)NC3=O)cc2)nc1 (stereo not given) [pioglitazone] + Cc1cc([N+](=O)[O-])ccc1NS(=O)(=O)c1cc(Cl)ccc1Cl [FH535] (first compound 10 µM, partner dose 5 µM)",57.5%
15,"CCCCCCCCc1ccc(CCC(N)(CO)CO)cc1 [fingolimod] + COCC[n+]1c2c(n(Cc3cnccn3)c1C)C(=O)c1ccccc1C2=O [YM155] (first compound 10 µM, partner dose 0.002 µM)",14.3%
16,"NC(=O)c1ccc(N(C(N)=O)c2c(F)cccc2F)nc1-c1ccc(F)cc1F + O=C1NC(=O)/C(=C/c2ccc(-c3ccc(F)cc3O)o2)S1 [AS252424] (first compound 2 µM, partner dose 5 µM)",153%
17,"NC(=O)c1ccc(N(C(N)=O)c2c(F)cccc2F)nc1-c1ccc(F)cc1F + Cc1nc(Nc2ncc(C(=O)Nc3c(C)cccc3Cl)s2)cc(N2CCN(CCO)CC2)n1 [dasatanib] (first compound 2 µM, partner dose 0.02 µM)",18.3%
